According to the supplement of paper PMC11417369:
± gives the standard deviation of the averaged measurements. This is one part of the list.

System: PfAP2-G AP2 domain (GST-tagged)
Assay: gcPBM binding intensity (ln(normalized median fluorescence intensity)); higher = stronger DNA binding
How it was run: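 The highest Masliner-normalised natural-log median intensity across replicate spots of either probe orientation is reported as binding intensity. GST-tagged P. falciparum DNA-binding domains expressed in E. coli were applied for 1 h to an Agilent 4 × 180k array of primer-extended double-stranded 36-bp intergenic genomic probes plus negative controls, and bound protein was detected with Alexa488 anti-GST antibody and scanned at 488 nm.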

Sequence	gcPBM binding intensity (ln)
ATATAACATAGACACACACACATATAAATATATTAT [CACACA_site7865]	10.2 ± 0.24
ATATAAGATTTAAGAAGTACAATTATACAGTAGATC [XGTACX_site7501]	11.4 ± 0.88
CTTTATAAAATAAGAGTGCGTTATATTGAATTGTAT [GTGCAC_site9390]	10.05 ± 0.064
TATATTTGCAGTAATAATAATTATTATAAAAGATAA [XGTACX_negctrl_site547]	9.95 ± 0.18
TATGAATGGTTAAGTACACACATATTAAGATATGTA [CACACA_site5852]	11.3 ± 0.93
TTATTTATTTTAAATTCACACATCGTGCTATTATAT [CACACA_site5003]	9.695 ± 0.007
TCATATATTTATGTATGTACATATATATATAGATTA [XGTACX_site380]	11.1 ± 0.61
ACGTTTTATAATTAATGTACAAATATTAAAATTGCA [XGTACX_site7869]	10.8 ± 0.54
GAATAAATTAAAAATGCACACTTTGATGGGTACATT [CACACA_site5220]	11.3 ± 0.88
AATTAGACATAATATACACACATATATTATAGATAT [CACACA_site7297]	9.815 ± 0.007
TATATTATTATAATTTGTACATATCTAATTATATAT [XGTACX_site5342]	10.8 ± 0.52
TAAAGATATTATTTTTGTACATATTGATATAATGAA [XGTACX_site6571]	10.9 ± 0.53
TTTTTATAACGTAATAAATAAAACGTCTATACTATA [XGTACX_negctrl_site176]	10 ± 0.28
AAAAATATAATATAATGTACACAAAAAAAAAAATTC [XGTACX_site3657]	11.4 ± 0.79
TAAATAAATCTGTGCTTGCACTTTTTTTGTTATTTT	9.94 ± 0.21
AAAATAAAAAAAATAAATAAAAAAAATAATAATAAA [CACACA_negctrl_site563]	9.455 ± 0.035
TCATAAATATAAAGTGTGCACTTGAATAATATGTAT	10.15 ± 0.099
ATTTAACATATAAAATGTACATATATATATATATTT [XGTACX_site2525]	10.8 ± 0.54
GTACCATCAAAATAAATATATATATATATATATTTT [GTGCAC_negctrl_site646]	9.86 ± 0.35
ATATAAACATATAATAGTACACTTCGATAATTTTAT [XGTACX_site3321]	11.2 ± 0.61

Sequence	gcPBM binding intensity (ln)
AGGAAAATTTTATTTGCACACATTATTACGTCTAAA [CACACA_site2337]	10.3 ± 0.23
CATATATATATTGGAAGTACATATTTAATATTCATT [XGTACX_site3545]	11.4 ± 0.7
TCTTTTTTCATATTTTCACACATGTCTTTATATTTA [CACACA_site6025]	10.1 ± 0.042
TTTGTGTTGTATTTTTGTACATAAAATAAACTTAAA [XGTACX_site4637]	11 ± 0.64
TTTCTTTTTTCTTCAGTGCATTAAAATTAACAAAAG	10.2 ± 0.33
GAGCCCAAAAAATTAGGTACGTATAAAGAGGTATTT [XGTACX_site5348]	11.2 ± 0.71
ATAAAGTATATTATATGTACATATATATATTATATA [XGTACX_site1345]	11.1 ± 0.52
AGATGAGAAATATATACACACAATAATACCTATTTA [CACACA_site876]	9.93 ± 0.16
ACATGTAATATAATGTGTACATATACAAAGGTATAT [XGTACX_site4145]	11.5 ± 0.87
GTTAAGTGGATATATACACACATATGCAATACATGA [CACACA_site7427]	10.07 ± 0.099
TATACTACCCAGAGCTGTACAAAATAATAATAAGTT [XGTACX_site1045]	10.7 ± 0.47
ATGGTTATATTTGAAGTGCAAAAAAAAATATATGTA	10.3 ± 0.29
ATGTGGATTTTATAATGTACATATGATATTATTTTG [XGTACX_site7930]	11 ± 0.6
CAATTCAATATATATACACACACACTATTAATAATT [CACACA_site9256]	10.1 ± 0.2
TATATTTTTATGTGTGTGCACAAAATAACAAAATAT [GTGCAC_site9596]	10.7 ± 0.5
ATTATTTTTTTTGAAGTGCAATATTATTTTTAATCA	9.99 ± 0.18
ATAAACAGATAAAAGGGTACACACATATATACATGT [XGTACX_site452]	11.4 ± 0.84
TTATATATATATTGTTCACACATAATATAAATATTT [CACACA_site5835]	9.86 ± 0.014
TTAAATAAAATAAAAACATGCACACTTTATTTTTTT [TGCATGCA_site719]	9.985 ± 0.021
TTTTAATAAATCATTTTCCTAATATTTATATTTGCT [TGCATGCA_negctrl_site232]	9.53 ± 0.14

Sequence	gcPBM binding intensity (ln)
TTTTTCATTTAGCTTTTACACACTATATATTATTGA [CACACA_site7888]	9.905 ± 0.064
ATTCCTTTATTATCACGTACTTATAAAATATAGTAT [XGTACX_site7498]	11.2 ± 0.6
AATAAAAAAAATTTCTGTACATATATTTATTATATA [XGTACX_site1883]	11.1 ± 0.74
CTCTTTTCTTATAATACACACAGTAATATTTATATA [CACACA_site6824]	10.4 ± 0.39
TACTTTTTTATTTGGTGTACAAATAAAATCATAATG [XGTACX_site1802]	11.5 ± 0.86
ATATATTTTGATTGCACACAGAATTTAAATCATGAT [CACACA_site2343]	10.1 ± 0.2
GAAGATATATAATAATTCATAGTTTTTTAATTTAAA [TGCATGCA_negctrl_site295]	9.45 ± 0.18
CAAACCCACCAACACACACACACAAAAATGATTAAA [CACACA_site2432]	10.2 ± 0.35
AATAAAAAGGAACACACACACACACCGATATATATA [CACACA_site5895]	10.1 ± 0.15
TACATACACAGACACACACACATATATATATATATA [CACACA_site3557]	10.2 ± 0.38
AATATATACATATATACACACACATATATTATATAT [CACACA_site7980]	9.895 ± 0.007
TAAATATAAGTGTACATACACACTTTACAATCTCAT [CACACA_site3006]	11.3 ± 0.72
TATTGTAGTCATGCACGTACAAAAGGAAAGTTAAAA [XGTACX_site4446]	11.3 ± 0.75
AAATAAAATATTACATGTACATGTTCATAAAAAAAA [XGTACX_site1067]	11.2 ± 0.65
ATAAATTAATGGAGAAATCTTATGAATTTATTTTAA [CACACA_negctrl_site1068]	9.37 ± 0.27
TTATTTTTATATTTCACACACATATACTTTTACATA [CACACA_site4097]	10.2 ± 0.13
ATTTAAATTTAAAAAACACACATAATATGATATATA [CACACA_site1973]	9.965 ± 0.035
AAAGAAGAAAAATATAGTACAGGGCACATGTCCTGT [XGTACX_site6293]	11.1 ± 0.74
